In all, about 2,300 sequences were measured (“median log2 fold change of GCK-ALFA target abundance (FLAG IP / Myc IP barcode read proportion)”: median about 0.095, lowest 2% from about -0.47 on). The list shows a part of the results.

To fix the notation:
B1: LC3A_17_562 (protein)
chain: SEELREEVERLVEELEKAVKKTSKLDPSAKEELEAKLKEIKELIEKGDLRGALKAAEELADKIADIAEKNEDKHPLEASLLEMEANGLALEATRLLLKLE
B2: LC3A_128_226 (protein)
chain: SEEIKDLLEDLEEALKDLKELATTEELKKLLEEAEKLLKELKELIKKGASIEEIKKKAKELLKTVEEFLKLAEEKGVKNKVALNAAEIDLANAEEELEEI
B3: LC3A_28_760 (protein)
chain: MNIKEEVEAAIKEAKEAKAKGEEKVIRITVPAGATQEDIEIVIEGLEKIAEINKDMKSTSIVIDVEAGVSQENIDKLIDAGEEIEKKYPNITVIFALDED
B4: LC3A_3_1855 (protein)
chain: MEEIIEEALKLLKELGRSEETIEAARKLLEALKERGFEEAAKVLLEELKKLKNVSDEDLLEMFNELLKALEEEDLNEEEAIELIKSEARVLLNAEEIEEL
B5: LC3A_3_1381 (protein)
chain: MEELLERLREILEEQGRSEETIEAALRLLRALLERGFLEAAETVIEKVEESEDLSDENLLWIFEEVLEAVENEDLSEEELIELINELFRVAKSDEEIIEL
B6: LC3A_132_318 (protein)
chain: EEELYRRLREEVERAIEEARENLENQEKVDELAEEVRRLLERAAEEISPEQTAELAREAAERADEVAREAEAAGKENVALTFDGLAVYADALAIRAEEKL
B7: LC3A_3_1748 (protein)
chain: MEERLARVRALLEAQGRSEETIAAALRLVTLLLERGFEEAVETLEELLAEAEDLPDEILLDMLEDILEYVESNDIDEEEAIEKIKEEFSVARSEAEIIEL
B8: LC3A_3_1911 (protein)
chain: AEEALKALREQLKALGHSEEVIAAALAAAKLLLKAGNEEGVKLLAEAAKATAKLPEADQLAFFEDLKAELEALADDPEAQLAAAREFKRLAENAAEIEEI
B9: LC3A_17_535 (protein)
chain: MEELREELEEALRRAEELVERVEEYDPEAAKEFRKKLEEIRKLIEEGKLREAAEKLEELARELADHIESLEWEDPVEQEVLLMEANGIELEAIGILLKLD
B10: LC3A_28_773 (protein)
chain: MDVKENVEAAIAEAKEAVARGEEAVIRIEIPDGSTQEDIDTVIEGLKEIAEITKDMKRTSVVVDVDGGVKQEHLDKLAKAAEEIEEKYPNVTVIIALDEN
B11: LC3A_28_1122 (protein)
chain: SALREAWEKSLAQAKEEAEAGKDVVAEFTATNDMTEEDLEYLLEKIEEAAKYLSEHGQNSILVDLDMPNKPELRDRLIDGVDEIEKKYPSVNIVIALEED
B12: LC3A_free_39_2290 (protein)
chain: SMEELEEAVEEVEELLEEEPEISPEEKETILEAARQSLEVAKAIVEMLKDIKEAGGDVAAAVKRLADLIKAGKAAGLSQEELNAAVIEEAEDLRNLIPID
B13: LC3A_132_286 (protein)
chain: DEEKTKESVEKVKKIAEEAEKNAEDEEKVRKLLEELRKYLEEVEKTESPEVVAATSRTAAEELEKLAEKLEELGKEELALEADSLAIEAESRALRAEEAL
B14: LC3A_28_653 (protein)
chain: EEIEKELEKAIKEAEKAKKKGEPVVVTIKVSGKVNEEQLEKILETLEKIAELLKDIKGSAIIVDLDKDVPQEFEDKLIDKAEELEKKYPNVTVIIALEER
B15: LC3A_3_1558 (protein)
chain: MEEIREETLEELRRAGKSEEVLEAARRAFEALIERGYEEALRTLAEETRELIDLPDELLLAFFEDVLETIETEDLNEEELIEKIREIARITRNEGEIEEL
B16: LC3A_28_674 (protein)
chain: MELRERLEKALKEAEEAAKKGVPTVITVTIPADATEEEVEEAKKKLEEIAEILKDVKGSAIIVDLERGLKEEHRNEIIDKADELDEKYPNVTVIVALEEE
B17: LC3A_3_1560 (protein)
chain: MEEEKKKALEALKEAGKSEEVIKKAKELLEELEEKGYYEAAKEAIEELLELKDASDEILLDFLEEVLNYVKNEDLDEEEVIKKIKELARIAKNESEIIEL
B18: LC3A_28_989 (protein)
chain: SEDQKAADAFLAEAKEAAAAGEATVLVLKVSKTATEEDIEKIVETLKEAAEVLKDVPGAAIVIDLESGVAQEHIDKLADAAEEVEEKYPNVTVILALDED
B19: LC3A_3_1842 (protein)
chain: LEEERKKAIEALKAAGHSQETIDAFQEALDALLEKGYEEAAKTFIKLMLELIDMPDELLLELAEEVLEYVETTDDSEEETKKKIEELAKLYKNEYEIEEL
B20: LC3A_free_46_2429 (protein)
chain: YVVEIDIDLLHEDEEVLKKAVEEIVAKAKEIAAKHGAEIKIETEISKLEDGSYFAEINITVTVDDKETAEKIANEIIDAIDEIAEKYDVSYIISVDISEA
B21: LC3A_62_2043 (protein)
chain: MYLATVDVDILAKDEEAAEKIYEEIKKKLEELKKKDPNIKYEVKLDKENKYVSVTVTYEAETLEEAEKKAQEIEDELDEILEKNEDLIKAALISREITKL
B22: LC3A_28_1230 (protein)
chain: SEIEEQIEEALKKAEEAKKEGKSEVITIKVSGKTTLEEAEKIAKKMEEIAELLKDLPKQHIIIDIERGVSQEVLDLLMKKAEEIEKKYPNVTVIFALEEE
B23: LC3A_28_1162 (protein)
chain: SAIEESIKAAFEELEKAIKEGKNGVITLKVPGDATEEDIERLIKALEEIAKKAEEHGINGILIDVDGGVKQEHIDRLAKAAEEIEKKYPKVTIIIALSDE
B24: LC3A_3_1429 (protein)
chain: MEEILEEARKVLEEAGFDEETIEAVLELLRLALEAGEFEEARELIEELKKAKDVDSEDVLEAAREALRRIREEGVPIEEALREFIEEIRVLRLEKEIEEL
B25: LC3A_3_1389 (protein)
chain: FEEIKKETIEELKKFGKSEEVIKEAEKVLDALAEKGYLKAMETLLKEVKELKDASDELLLDFFRSVLEKVTTEDLTEEETVEFIKEEATVTKNESEIEEL
B26: LC3A_28_966 (protein)
chain: SRLEEEIEKALKEAKEAAEKGEAKTIVIKIPGDTTEEDTEKIIEALYEIAEILKDIKGAAILLDVEPGVSQEHIDKLADAAEEIEKKYPNVTVIIALEEE
B27: LC3A_3_1503 (protein)
chain: MEEILKELEEELKKMGFSEEVIKLAIEAMKLLLERGYEEAAETLRELLKEMKDLSNEAKLAFMKDVLELLKTSDLSEEELIAEIKAIATTTRNDAEIEEL
B28: LC3A_3_1712 (protein)
chain: MEELLKEAEEILKKQGRSEETIEAVLEALKALLEKGYEEAAKTFIELLKEMKDLSDEILLDFALDVKEFVETEDASEEEVIEFIKEEAETARNEQEIEEL
B29: LC3A_147_495 (protein)
chain: GVVDIDILVKDKEAAEKVVEEFERKVEELREEGYEVELEVKIEKISEDEYYVEIRIRIRAPTEEEEQAALDKVVSFIEELEEKYKDEILASLISVELEKR

This test deals with MAP1LC3A, Q9H492. The test is described as follows: median log2 fold change of GCK-ALFA target abundance (FLAG IP / Myc IP barcode read proportion) (log2 ratio); each designed protein is fused to an ALFA-tag nanobody in HEK293 cells to bring the named protein to FLAG-tagged glucokinase (GCK); Myc marks an untargeted standard; higher = target protein stabilised (more abundant). As to conditions: target protein: 3xFLAG-MCP-GCK-ALFA reporter; HEK293 landing pad (RPLP). A digest of the protocol: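 Sequencing of reverse-transcribed, amplified circular RNA barcodes from anti-FLAG and anti-Myc immunoprecipitates provided the readout for an ALFA-nanobody-fused binder library recombined into HEK293 landing-pad cells. Those cells were induced with 2 μg mL^−1 doxycycline, transfected with a plasmid expressing a FLAG-tagged target and a Myc-tagged standard, and lysed after 48 h. Target abundance is the per-binder median log2 ratio of FLAG to Myc barcode read proportions. Only barcodes at a proportion of ≥10^−7 in both replicates and binders with ≥3 barcodes per replicate were kept, with a 10^−6 pseudocount added before the two replicates were pooled.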
Consider B1, for which the “median log2 fold change” value stood at 0.05.
As to B2, the “median log2 fold change” value was -0.0132.
With B3, the “median log2 fold change” value was -0.183.
Turning to B4, the “median log2 fold change” value was found to be 0.224.
As to B5, the “median log2 fold change” value was -0.16.
With B6, the “median log2 fold change” value stood at 0.106.
As for B7, the “median log2 fold change” value came to 0.031.
As for B8, the figure is 0.284; as for B9, -0.083.
In the case of B10, the “median log2 fold change” value is 0.185.
In the case of B11, the “median log2 fold change” value was -0.465.
Turning to B12, the “median log2 fold change” value turned out to be 0.143.
Turning to B13, the “median log2 fold change” value turned out to be 0.118.
For the molecule B14, the “median log2 fold change” value came to 0.0797.
For B15, the “median log2 fold change” value amounted to 0.133.
Regarding B16, the “median log2 fold change” value came to 0.153.
Regarding B17, the “median log2 fold change” value amounted to 0.272.
In the case of B18, the “median log2 fold change” value was -0.0291.
Take B19: the “median log2 fold change” value worked out at 0.23.
B20: the “median log2 fold change” value was found to be 0.154.
Turning to B21, the “median log2 fold change” value came out at 0.16.
As for B22, the figure is -0.18; as for B23, -0.0306; as for B24, 0.0462.
Regarding B25, the “median log2 fold change” value turned out to be 0.228.
For the molecule B26, the “median log2 fold change” value came to 0.24.
As for B27, the figure is 0.252; as for B28, 0.0663; as for B29, -0.312.
